# Measured values: publication PMC4336329 (PLoS ONE, 2015)
# Screen size: about 310,000 compounds; about 2,200 (0.71%) showed an effect of 50% or more. Effects have a minus sign here. The list shows a part of the results.
# Biological target: human ether-à-go-go-related gene (hERG) potassium channel (human, UniProt Q12809)
# Experiment: primary screen, population patch clamp on CHO cells stably expressing hERG
# Chain of human ether-à-go-go-related gene (hERG) potassium channel (Q12809 whole entry, looked up): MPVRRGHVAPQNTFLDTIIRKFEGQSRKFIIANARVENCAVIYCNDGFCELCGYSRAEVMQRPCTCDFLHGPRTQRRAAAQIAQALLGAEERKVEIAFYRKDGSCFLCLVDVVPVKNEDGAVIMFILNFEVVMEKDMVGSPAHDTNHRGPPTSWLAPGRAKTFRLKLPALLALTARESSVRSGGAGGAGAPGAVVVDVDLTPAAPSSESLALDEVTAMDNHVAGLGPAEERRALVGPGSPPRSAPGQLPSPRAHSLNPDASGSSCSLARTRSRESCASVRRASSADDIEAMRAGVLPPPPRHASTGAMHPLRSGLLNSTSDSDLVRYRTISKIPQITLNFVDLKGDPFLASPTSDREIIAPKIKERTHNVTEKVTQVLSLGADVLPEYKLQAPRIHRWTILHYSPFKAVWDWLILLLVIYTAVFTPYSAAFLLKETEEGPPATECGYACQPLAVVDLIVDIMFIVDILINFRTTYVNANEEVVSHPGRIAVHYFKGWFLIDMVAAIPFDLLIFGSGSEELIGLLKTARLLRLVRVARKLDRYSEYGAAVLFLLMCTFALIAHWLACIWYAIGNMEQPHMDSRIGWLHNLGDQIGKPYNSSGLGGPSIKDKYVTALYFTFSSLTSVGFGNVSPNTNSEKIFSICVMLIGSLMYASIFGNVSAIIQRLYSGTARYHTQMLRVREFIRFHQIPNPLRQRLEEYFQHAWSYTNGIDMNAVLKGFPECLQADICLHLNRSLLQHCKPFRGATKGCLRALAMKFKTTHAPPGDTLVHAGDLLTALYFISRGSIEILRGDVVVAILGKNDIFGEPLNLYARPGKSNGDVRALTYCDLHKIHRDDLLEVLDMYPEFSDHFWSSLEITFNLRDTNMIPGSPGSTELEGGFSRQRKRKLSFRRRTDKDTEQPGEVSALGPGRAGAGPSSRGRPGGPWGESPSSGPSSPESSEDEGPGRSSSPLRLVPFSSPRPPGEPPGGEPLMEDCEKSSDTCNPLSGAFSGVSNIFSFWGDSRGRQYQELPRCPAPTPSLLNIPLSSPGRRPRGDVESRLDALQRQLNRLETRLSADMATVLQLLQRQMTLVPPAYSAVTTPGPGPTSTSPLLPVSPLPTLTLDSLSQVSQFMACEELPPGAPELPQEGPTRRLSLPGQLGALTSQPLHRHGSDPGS
row,SMILES,"hERG current change (%, negative = inhibition) at 1uM [%]"
1,O=C(N/N=C/c1ccsc1)c1cc(-c2ccncc2)nc2ccccc12,10.7
2,CCC(C(=O)O)n1cnc2scc(-c3ccc(C)c(C)c3)c2c1=O (centres unmarked),15.9
3,Cc1c(C)n(C)c2ccc(C(=O)NCc3cccs3)cc12,-2.45
4,COc1ccccc1CNC(=O)C1CC(c2c(Cl)cccc2Cl)=NO1 (centres unmarked),10.7
5,CCCC(=O)N(CCN1CCOCC1)c1nc2c(C)ccc(C)c2s1.Cl,-8.8
6,CC(=O)CC1(O)C(=O)N(CN2CCN(c3ccccc3)CC2)c2ccccc21 (centres unmarked),15.8
7,COc1ccccc1CNC(=O)CCS(=O)(=O)c1cccc2nonc12,12.2
8,COc1ccc(S(=O)(=O)Nc2cc3c4c(c2)CC(=O)N4CCC3)cc1,-6.19
9,COCc1cc(CNC(=O)C2CCC(=O)N(Cc3ccccc3F)C2)[nH]n1 (centres unmarked),14.6
10,Cc1ccc(NS(=O)(=O)c2c(C(=O)N3CCCCCC3)c(C)n(C)c2C)c(Cl)c1,7.94
11,COc1ccc(C2c3ccc4ccccc4c3Oc3ncn(CCCO)c(=N)c32)cc1 (centres unmarked),-40.6
12,Cc1cc(C)n(-c2ccc(Cl)c(C(=O)Nc3cc(C(F)(F)F)ccc3Cl)n2)n1,12.6
13,Cc1ccc2nc(SCC(=O)N3CCC(Cc4ccccc4)CC3)nc(=O)n2c1,-31.1
14,CCOC(=O)CNC(=O)c1c2c(nc3ccccc13)CCCC2,14.8
15,O=C(/C=C/c1ccc(Cl)cc1)NCCN1CCOCC1,-0.648
16,C[n+]1ccccc1/C=C/c1ccc2ncccc2c1.[I-],11.2
17,Cn1c(Cn2c(=O)sc3ccccc32)nnc1SCC(=O)Nc1cccc(Cl)c1,6.8
18,CCn1c(COc2ccc(=O)n(-c3ccccc3)n2)nnc1SC,8.56
19,CCN(CC(=O)NCc1cccs1)C(=O)c1cc(S(=O)(=O)N2CCOCC2)ccc1C,3.23
20,O=C(CCCn1c(=O)c2cccn2c2cccnc21)NCc1cccc(Br)c1,-0.008
21,O=C(COC(=O)C1C2CC3OC(=O)C1C3C2)Nc1ccc(F)cc1 (centres unmarked),11.2
22,Nc1nn(-c2ccccc2)c(N)c1N=Nc1ccccc1F,-4.18
23,Cn1cnnc1SCC(=O)NCc1cccc(C(F)(F)F)c1,24.1

row,SMILES,"hERG current change (%, negative = inhibition) at 1uM [%]"
1,CC(CO)(CO)NC(=O)c1ccc(=O)[nH]n1,2.91
2,S=C(NCCCN1CCOCC1)Nc1cccc(-c2nnc3n2CCCCC3)c1,2.32
3,CC1=NN(C2=NS(=O)(=O)c3ccccc32)C(C)(O)C1 (centres unmarked),-7.57
4,Cc1ccc(NC(=O)C2(N(C(=O)Cn3nnnc3N)c3ccc(C)cc3)CCCCC2)cc1,13.7
5,CCc1nnc(NC(=O)C2CCCN2C(=O)Nc2ccccc2OC)s1 (centres unmarked),12.9
6,CCn1ncc(C2=NOC(C(=O)NCc3ccccc3)C2)c1C (centres unmarked),-6.74
7,CCSc1ccc(C(=O)NCC(=O)O)cc1,14.6
8,Cc1nn(C)c(C)c1NC(=O)c1cnn2c(C(F)F)cc(-c3ccccc3)nc12,24.7
9,COCCSc1ccccc1C(=O)NCc1ccc2c(c1)OCO2,5.84
10,O=C(CN1CCN(c2ccccc2)CC1)Nc1ccc2c(c1)OCCO2,4.63
11,O=C(CCNC(=O)c1ccc(Br)o1)NC1CCCC1,7.52
12,COc1ccc(/C=N/N=C2\CC3CCC2(C)C3(C)C)cc1O (centres unmarked),6.57
13,[O-][n+]1c2ccccc2c2n1CCN=C2c1ccc(Cl)cc1,15.2
14,COc1ccc(S(=O)(=O)N2CCOCC2)cc1NC(=O)c1cccc(Cl)c1,6.86
15,COCCNC(=O)C(c1ccc(C)o1)N(Cc1ccc(OC)cc1)C(=O)Cn1nnc2ccccc21 (centres unmarked),7.85
16,Cc1[nH]c2ccccc2c1/C=C/c1nc2ccccc2c(=O)n1CCO,-7.67
17,CC(C)c1ccc(O)c(C(=O)c2cnn(-c3ccccc3)c2)c1,16.6
18,O=C(COc1cc(Cl)c(Cl)cc1Cl)NCCc1ccccn1,1.32
19,CCCN(C(=O)c1ccc(OCC(C)C)cc1)c1c(N)n(Cc2ccccc2)c(=O)[nH]c1=O,4.57
20,O=C(NNC(=O)c1ccc(F)cc1F)c1ccc2c(c1)OCO2,12.7
21,COc1ccc(N(CC(=O)N/N=C/c2ccccc2OC)S(=O)(=O)c2ccccc2)cc1,11.8
22,O=C(c1cc2ccccc2s1)N1CCOCC1,7.64
23,COc1ccc(S(=O)(=O)NCCSCc2ccco2)cc1OC,9.19

row,SMILES,"hERG current change (%, negative = inhibition) at 1uM [%]"
1,COc1cc(C(=O)NCc2cc(C)nc3ccccc23)cc(OC)c1OC,4.26
2,CC1CCN(C(=O)c2cc3ccccc3cc2O)CC1,2.72
3,CC(=O)c1ccc(S(=O)(=O)NC2CC(=O)N(c3cccc(F)c3)C2)cc1 (centres unmarked),6.01
4,C=CCNC(=O)/C(=C\c1cccc([N+](=O)[O-])c1)NC(=O)c1ccccc1,-8.25
5,CCCCNC(=S)Nc1ccccc1Cc1ccccc1,11.7
6,CCOc1ccc(S(=O)(=O)N2CCN(C(=O)c3cccn3C)CC2)cc1,-6.68
7,Fc1ccc(NC(=S)Nc2ccccc2OC(F)F)cc1Cl,18.7
8,Cc1cc(C)n(CCCNCC(O)c2ccccc2)n1.O=C(O)C(=O)O (centres unmarked),9.17
9,CCOn1c(SCC)nc2ccccc2c1=O,-0.23
10,COc1cc(CNc2ccc3[nH]c(=O)[nH]c3c2)ccc1OCc1ccccc1Cl,14.3
11,CCCCN1C(=O)c2ccc(C(=O)Nc3c(N)n(CCCC)c(=O)n(C)c3=O)cc2C1=O,-20.3
12,Oc1ccc(-c2sc(Nc3ccccc3)n[n+]2-c2ccc(F)cc2)cc1.[Cl-],9.65
13,CC1CN(C(=O)COc2ccc3c(-c4ccccc4)cc(=O)oc3c2)CC(C)O1 (centres unmarked),10.8
14,COc1ccc2c(c1)O[C@H](c1ccc3c(c1)OCO3)[C@@H](OC(=O)Nc1cc(OC)c(OC)c(OC)c1)C2=O,13.9
15,Cc1ccc(OCC(=O)Nc2nnn(C)n2)c(C)c1,9.57
16,O=C(O)CSc1nnc(COc2cccc3cccnc23)n1-c1cccc(C(F)(F)F)c1,16.6
17,Cc1cccc2cc(CN(Cc3ccco3)C(=O)c3ccncc3)c(=O)[nH]c12,-3.19
18,CC1CCN(C2(O)C(=O)Nc3ccc(Cl)cc32)CC1 (centres unmarked),15.4
19,COC(=O)C1=C(N)N(c2ccccc2F)C2=C(C(=O)CC(C)(C)C2)C1c1ccc(OC)c(OC)c1 (centres unmarked),3.06
20,CCOC(=O)c1sc2ncnc(N3CCN(C)CC3)c2c1C,0.473
21,CCOC(=O)c1cc(CC)sc1NC(=O)C1CC1,9.15
22,O=C1CC(c2ccccc2)CC2=C1C=Nc1ccccc1N2 (centres unmarked),-9.6
23,COc1ccccc1-c1nc(C#N)c(N2CCN(Cc3ccccc3)CC2)o1,12.8

row,SMILES,"hERG current change (%, negative = inhibition) at 1uM [%]"
1,C=CCn1cccc(C(=O)Nc2ccc(Cl)cc2)c1=O,10
2,Cc1ccc2c(C(=O)CN3CCCC3)c(C)[nH]c2c1,10.8
3,N=C1C(c2nc3ccccc3[nH]2)=C(O)CN1c1ccc(F)cc1,1.91
4,CC1(C)Cn2c(nc(=O)c3c2NCN(CCc2ccccc2)C3)S1,11.4
5,NCc1cccc(CNc2ccc([N+](=O)[O-])cc2C(N)=O)c1,7.31
6,CC(C)NC(=O)C1CCN(S(=O)(=O)c2ccc(N3CCCC3=O)cc2)CC1,21.4
7,Nc1nonc1-c1nc2ccccc2n1CC(=O)NC1CCCC1,4.39
8,CCSc1nc(-c2ccccc2)c(C#N)c(=O)[nH]1,8.08
9,NC(=O)CC(NC(=O)Cc1cccc2ccccc12)c1ccc(N2CCC(Br)CC2)c([N+](=O)[O-])c1 (centres unmarked),3.18
10,S=C(NCc1ccc(Cl)c(Cl)c1)NCc1ccco1,16
11,CC(C)(C)c1cc(C(F)(F)F)n2ncc(-c3ccccc3)c2n1,15.8
12,Cn1c(SCC(=O)NC2CC2)nnc1-c1cccc(NC(=O)c2ccccc2F)c1,9.12
13,Cc1ccc(C(=O)N2CCN(C34CC5CC(CC(C5)C3)C4)CC2)o1,15.9
14,COc1cc(C(=O)OCC(=O)NC(=O)c2cccn2C)ccc1OC(F)F,11.1
15,C=CCN1C(=O)C(C)(C)N(C(=O)c2cccc([N+](=O)[O-])c2)c2ccccc21,5.89
16,CCOC(=O)CNC(=O)C12CC3CC(C1)CC(c1ccc(C)cc1)(C3)C2,7.72
17,CCc1ccc(C(C)NC(=O)c2ncn[nH]2)cc1 (centres unmarked),-0.151
18,CC1CCCCC1NC(=O)CN(C)S(=O)(=O)c1cccc2nsnc12 (centres unmarked),14.2
19,CCOc1ccc(Cn2c(O)cc(=O)[nH]c2=O)cc1,16.3
20,C=CCNC(=O)CSc1nc2sc3c(c2c(=O)n1CCCOC)CCC3,-18.6
